# Hit rate of the full screen: of about 310,000 compounds, about 14,000 (4.5%) showed an effect of 50% or more. The effect is printed as a negative number. The list shows a part of the results.
# Molecular target: human ether-à-go-go-related gene (hERG) potassium channel (human, UniProt Q12809)
# Assay: primary screen, population patch clamp on CHO cells stably expressing hERG
# 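Further: peak tail current of the secondary pulse compared with the same well before compound.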
# Chain of human ether-à-go-go-related gene (hERG) potassium channel (Q12809 whole entry, looked up): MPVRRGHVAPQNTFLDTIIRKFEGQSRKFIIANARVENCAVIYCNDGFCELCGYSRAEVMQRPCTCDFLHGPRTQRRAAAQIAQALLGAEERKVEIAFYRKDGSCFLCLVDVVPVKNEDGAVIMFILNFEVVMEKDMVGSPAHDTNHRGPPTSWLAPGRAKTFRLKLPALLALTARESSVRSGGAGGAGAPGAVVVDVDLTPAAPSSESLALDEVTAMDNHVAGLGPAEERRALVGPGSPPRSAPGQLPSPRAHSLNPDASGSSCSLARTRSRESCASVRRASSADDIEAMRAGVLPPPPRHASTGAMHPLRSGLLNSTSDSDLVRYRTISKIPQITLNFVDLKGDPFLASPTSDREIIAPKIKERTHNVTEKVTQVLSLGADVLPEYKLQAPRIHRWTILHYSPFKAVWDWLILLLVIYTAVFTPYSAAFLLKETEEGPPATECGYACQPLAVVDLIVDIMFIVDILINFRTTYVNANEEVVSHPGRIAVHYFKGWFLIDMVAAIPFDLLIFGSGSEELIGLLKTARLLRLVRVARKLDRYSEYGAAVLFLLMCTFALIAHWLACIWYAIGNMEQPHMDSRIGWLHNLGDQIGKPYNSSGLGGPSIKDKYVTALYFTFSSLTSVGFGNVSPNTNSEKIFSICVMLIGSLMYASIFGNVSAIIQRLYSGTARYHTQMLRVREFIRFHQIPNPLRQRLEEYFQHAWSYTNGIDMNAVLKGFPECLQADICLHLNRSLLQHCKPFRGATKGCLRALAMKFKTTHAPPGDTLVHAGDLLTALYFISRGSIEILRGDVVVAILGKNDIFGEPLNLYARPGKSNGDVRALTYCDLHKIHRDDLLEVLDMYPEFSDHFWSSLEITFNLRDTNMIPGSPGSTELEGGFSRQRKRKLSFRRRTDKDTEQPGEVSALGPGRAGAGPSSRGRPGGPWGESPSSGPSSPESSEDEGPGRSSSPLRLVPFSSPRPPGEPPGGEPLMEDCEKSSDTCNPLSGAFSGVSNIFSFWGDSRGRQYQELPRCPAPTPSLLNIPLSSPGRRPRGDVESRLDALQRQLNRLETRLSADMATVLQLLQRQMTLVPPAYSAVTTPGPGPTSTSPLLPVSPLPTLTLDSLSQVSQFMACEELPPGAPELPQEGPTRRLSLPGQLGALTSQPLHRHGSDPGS
row,SMILES,"hERG current change (%, negative = inhibition) at 10uM [%]"
1,CS(=O)(=O)N1CCCC(C(=O)Nc2ccccc2F)C1 (centres unmarked),20.4
2,COc1ccc(N2CCCC2)c(NC(=O)COc2ccccc2Cl)c1,14.8
3,Cc1cccc(NC(=O)c2ccc(NCCc3ccccc3)c([N+](=O)[O-])c2)c1,6.78
4,COc1ccccc1NC(=O)COc1coc(CN2CCN(c3ccccc3)CC2)cc1=O,-60
5,Cc1cc(C)nc(SCCn2c(N(C)Cc3ccccc3)nc3c2c(=O)n(C)c(=O)n3C)n1,-11.3
6,COc1ccc(OC)c(-c2csc(NC(=O)C3=NN(c4ccccc4)C(=O)CC3)n2)c1,-1.6
7,CNS(=O)(=O)c1cccc(C(=O)NNC(=O)CN(C)S(=O)(=O)c2ccc(Cl)cc2)c1,14
8,CCc1ccc(-c2cc(C(=O)NCc3ccco3)c3ccccc3n2)s1,-9.4
9,CCS(=O)(=O)c1ccc2oc(SCC(=O)NCCC3=CCCCC3)nc2c1,-43.1
10,CCCCSC1=N/C(=C/c2ccsc2)C(=O)N1c1ccccc1,16.9
11,CCCCNc1c(-c2ccc(-c3ccc(C(C)=O)cc3)c(OC)c2)nc2cnccn12.O=C(O)C(F)(F)F,-52.3
12,O=C(NCc1cccnc1)c1ccc(-c2cccc(Cl)c2Cl)o1,-47.9
13,CCCCC(CC)COP(=O)(OCC(CC)CCCC)OCC(CC)CCCC (centres unmarked),7.59
14,COc1ccc(C(=O)NC2CCCCCCC2)cc1OC,1.54
15,CC1CCN(S(=O)(=O)c2cc(C(=O)N3CCN(c4ncccn4)CC3)ccc2Br)CC1,-72.4
16,CCN1C(=O)C(CC(=O)Nc2c(C)cccc2C)SC1=Nc1ccc(S(N)(=O)=O)cc1 (centres unmarked),1.84
17,COc1ccc(-c2noc(N3CCCC(C(=O)Nc4ccccc4F)C3)n2)cc1 (centres unmarked),15.5
18,Cn1cnnc1SCC(=O)Nc1ccc2nc(SCc3cccc4ccccc34)sc2c1,10.3
19,O=C1ON=C(c2ccccc2)/C1=C/c1ccc(O)c(O)c1,10.2
20,Cc1ccc(-c2nnn(CC(=O)Nc3cccc4c3CCCC4)n2)o1,-1.13
21,Cc1ccnc2nc(C(=O)Nc3ccc(N4CCOCC4)cc3)nn12,3.61
22,COc1ccc(N2COC3c4cccc5cccc(c45)C32)cc1 (centres unmarked),12

row,SMILES,"hERG current change (%, negative = inhibition) at 10uM [%]"
1,CNC(=S)NNC(=O)c1cc(-c2cccnc2)nc2ccccc12,13.3
2,COc1ccccc1NC(=O)N(CCN(C)C)Cc1cc2cc(C)ccc2[nH]c1=O,-50.2
3,COc1cc(/C=N/NC(=O)c2ccccn2)ccc1OC(=O)c1cccs1,-17.2
4,O=C(CSc1ncccc1C(=O)O)NCCC1=CCCCC1,-9.55
5,Cc1nnc(N(C)C(=O)c2ccncc2)s1,18.9
6,COc1ccc(CCNC(=O)CN(c2cc([N+](=O)[O-])ccc2OC)S(C)(=O)=O)cc1,6.33
7,COc1ccc(-c2nnn(CCc3nn[nH]n3)n2)cc1,2.97
8,COc1ccc(C(=O)N2CCc3cc(OC)c(OC)cc3C2c2ccc(OC)c(OC)c2)cc1 (centres unmarked),-12
9,CCN1CCN(Cc2ccc(NC(=O)Nc3ccccc3)cc2)CC1,-6.93
10,COc1cccc(-n2c(Cc3cc(=O)[nH]c(=O)[nH]3)nnc2SCC(=O)N2CCCCCC2)c1,0.34
11,S=C(NCCc1ccccc1)NCCc1ccccc1,17.9
12,Cc1ccc(S(=O)(=O)C2C(=O)N(C)C3(C)CC2c2ccccc2O3)cc1 (centres unmarked),7.14
13,O=C(/C=C/Nc1ccc(S(=O)(=O)Nc2ncccn2)cc1)c1ccc2ccccc2c1,3.84
14,COc1ccc(CNc2nc3ccccc3n2CCN2CCCCC2)cc1,-59.7
15,CC(C)(C)N(NS(=O)(=O)c1ccc(F)cc1)c1ccccc1,-4.53
16,Cc1ccc(CC2CC(=O)N(c3cc(C)ccc3C)C2=O)cc1 (centres unmarked),7
17,Cc1cccc(OCC(=O)Nc2ccc3c(c2)OCO3)c1C,11.6
18,Cc1ccc(S(=O)(=O)NCC(=O)NCc2cc(=O)n(C)c(=O)n2C)cc1C,11.2
19,c1ccc(CCNc2ncnc3ccccc23)cc1,-43.2
20,Cc1nc2ccccc2nc(C)c1=NO,2.01
21,Cc1ccc2c(c1)Sc1ccccc1CC2=O,-20.9
22,Cc1ccc(COc2ccc(C)nc2[N+](=O)[O-])cc1,12.7
